Data from PubChem BioAssay AID652104 (National Center for Advancing Translational Sciences (NCATS), 2013).
Where “and” joins values, the source holds several entries; their conditions need not be identical. Equal entries are not always repeated. The whole screen tested about 410,000 compounds, of which about 7,200 (1.8%) were called active. This list was built around the results that the source calls inconclusive (neither active nor inactive); the mix of calls is not that of the screen. Calls come from the whole dose curve; as a rule, active = well fitted activation curve with a large enough effect; inconclusive = small, poorly fitted or top-dose-only effect, or another doubt; inactive = no such curve, though single readings can be large or run the other way. Where the call is inconclusive, the potency comes from a doubtful curve fit.

assay: qHTS of TDP-43 Inhibitors; details: TDP-43 expressing yeast growth rescue, BacTiter-Glo, 24 h; growth rescue (activation): at 46.1 µM (top of the series) unless noted; note: nearly all actives have a fitted effect of over 50% in size; for growth rescue (activation): % of control where 0% means no effect
In short: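 Cell-based yeast growth screen: TDP-43 expression induced in galactose, inoculum OD600=0.02 after raffinose pregrowth to mid-log. Read-out BacTiter-Glo luminescence at 24 hr, 30 deg C; inhibition of toxicity seen as signal increase.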
Potency is the fitted concentration of half-maximal effect; tags give direction and shape of the fitted curve.

SMILES	Potency	growth rescue (activation)
COc1cccc(C(=O)OCC(=O)NC(=O)NC2CCCC2)c1O	inconclusive: 35.5 µM [activator, partial curve]	
CC(=O)NNC(=S)NC(=O)C(c1ccccc1)c1ccccc1	active: 25.1 µM	
Cc1c(C(=O)OCC2CCCCC2)[nH]c2c1C(=O)CC(c1ccc(F)cc1)C2 (configuration not stated)	inactive	
CC(=O)c1c(-c2ccccc2)c2cc(Cl)ccc2n(C)c1=O	inconclusive: 8.91 µM [activator, partial curve]	
O=C(CN1C(=O)c2ccccc2C1=O)Oc1ccc(Cl)cc1	inconclusive: 11.2 µM [activator, single point]	
CCOC(=O)c1c(C)nc(-c2ccccc2)nc1N	inconclusive: 14.1 µM [activator, partial curve]	
Cc1cccc(C(=O)N2CCc3cc(CNC(=O)c4ccc(Br)o4)ccc32)c1	inconclusive: 14.1 µM [activator, partial curve]	
COc1ccc(NC(=O)CN(C)C(=O)CC2CCCC2)cc1	inactive	
CCn1c(CSCc2ccc(C)cc2)n[nH]c1=S	inconclusive: 8.91 µM [activator, partial curve]	
O=C(c1ccoc1)N1CCN(c2cc(-c3ccccc3)nc3cc(-c4ccccc4)nn23)CC1	active: 17.8 µM	
COc1cc(/C=C2\SC(=S)N(Nc3ccccc3)C2=O)ccc1O	inactive	
Cc1cc(Cl)ccc1C(=O)C1CCCN(C(=O)c2cnsn2)C1 (configuration not stated)	inconclusive: 15.8 µM [activator, partial curve]	
COc1cc(OC)c2c(C)c(CC(=O)NCCc3ccccc3OC)c(=O)oc2c1	inactive	
Cc1ccnc(NC(=O)c2cccc(S(=O)(=O)N3CCCc4ccccc43)c2)c1	active: 22.4 µM	
Cc1cc(C(=O)N2CCN(c3ccc(F)cc3)CC2)c2c(C)nn(-c3cccc(Cl)c3C)c2n1		inactive: 23.5% [at 9.22 µM]
COc1ccc(-c2nc(C#N)c(N3CCCCCC3)o2)cc1	inconclusive: 31.6 µM [activator, single point]	
CCc1cccc(NC(=O)CCNS(=O)(=O)c2ccc3c(c2)oc(=O)n3C)c1	inactive	
COC(=O)c1oc2ccc(OC)cc2c1N	inactive	
Cc1ccc(Cl)cc1-n1ncc2c(NC3CCCCC3)ncnc21	active: 12.6 µM	
Cc1cccc2sc(N3CCN(C(=O)CS(=O)(=O)c4ccc(F)cc4)CC3)nc12	active: 12.6 µM	
O=C(Cn1cnc2ccccc2c1=O)OCCCCN1C(=O)c2ccccc2C1=O	inconclusive: 17.8 µM [activator, single point]	
CN(CC(=O)Nc1cccc(F)c1)C(=O)c1ccccc1CCc1ccccc1		inconclusive: 162% [activator]
CC(C)CC(=O)NC(=S)Nc1ccccc1F	inconclusive: 12.6 µM [activator, single point]	
O=C(NCCc1cccs1)C1CC(c2c(Cl)cccc2Cl)=NO1 (configuration not stated)	inconclusive: 35.5 µM [activator, single point]	

SMILES	Potency	growth rescue (activation)
Cc1onc(-c2c(F)cccc2Cl)c1C(=O)NC(C)c1ccccc1 (configuration not stated)	inconclusive: 1.78 µM [activator, full curve, poor fit]	
CC1(C)Cc2ccccc2C(/C(=N\Nc2cccc(Cl)c2)C(N)=O)=N1	active: 15.8 µM	
CC1(CC(=O)N/N=C/c2ccc(OCc3ccc(Cl)cc3Cl)cc2)OCCCO1	inconclusive: 17.8 µM [activator, single point]	
O=S1(=O)C=C(Sc2nc3ccccc3s2)c2ccccc21	active: 2.24 µM	
Cc1ccc(CSCc2ccc(C(=O)NC3CC3)o2)cc1	inconclusive: 11.2 µM [activator, partial curve]	
CC1=NOC(=O)/C1=C\c1ccc(-c2ccc(Br)cc2)o1	inconclusive: 3.16 µM [activator, single point]	
CCOc1c(S(=O)(=O)N2CCCC2)ccc(Cl)c1Cl	inconclusive: 22.4 µM [activator, single point]	
O=C(Nc1cccc(C(F)(F)F)c1)/C(=C\c1ccco1)NC(=O)c1cccs1	inconclusive: 6.31 µM [activator, partial curve]	
O=C(/C=C/c1ccc(Cl)cc1)NC1CC2CCC1C2 (configuration not stated)	inconclusive: 22.4 µM [activator, single point]	
COC(=O)c1cccc(Nc2c(-c3ccc(OC)cc3)nc3nc[nH]n23)c1	inactive	
COc1ccc(CCNC(=O)c2cc3sc(Cl)cc3n2C)cc1OC	inconclusive: 22.4 µM [activator, single point]	
CCCCC(C)Sc1nc2c([nH]1)c(=S)n(C)c(=O)n2C (configuration not stated)	inconclusive: 20 µM [activator, partial curve]	
COCCNC(=S)NC(=O)c1ccc(C(C)(C)C)cc1	inconclusive: 10 µM [activator, partial curve]	
CCc1nc2c(OCc3ccc(Cl)cc3)cccn2c1N(C)C(=O)c1cccs1	inconclusive: 10 µM [activator, partial curve, poor fit]	
O=C(Nc1ccc2c(c1)OCCO2)c1cnn(-c2ccccc2)n1	active: 17.8 µM	
COc1ccc(C(C)(C)C)cc1NC(=O)Nc1ccc2c(c1)OCO2	inconclusive: 10 µM [activator, partial curve]	
Cc1c(Cl)cccc1NC(=S)Nc1ccc(S(=O)(=O)Nc2ncccn2)cc1	inconclusive: 10 µM [activator, partial curve]	
CS(=O)(=O)c1oc(-c2ccc(F)cc2)nc1S(=O)(=O)c1ccc(Cl)cc1	inactive	
O=C(CSc1nc2c(sc3ccccc32)c(=O)n1CCCC(=O)NC1CCCC1)Nc1ccc(F)cc1	inactive	
CCc1cc(-c2n[nH]c(=S)n2CC)cs1	inconclusive: 12.6 µM [activator, partial curve]	
Cc1ccc(NC(=O)Cn2nnc(-c3nc(-c4ccncc4)no3)c2N)c(C)c1	inactive	
CC(=O)Nc1cc(-c2ccc(N(C)C)cc2)cn2c(-c3ccc(F)cc3)cnc12	inconclusive: 12.6 µM [activator, partial curve]	
O=C(C(=O)N1CCC(Cc2ccccc2)CC1)c1ccccc1	inconclusive: 25.1 µM [activator, partial curve] and inconclusive: 14.1 µM [activator, single point]	
